Results published in the supplement of paper PMC8728848.
This is one part of the list.

Tests used:
Experiment in all cases: glycan array binding signal (z-score within array); higher = stronger binding
Conditions in all cases: glycan notation: IUPAC condensed, linker removed
[1] = target: Fuc(a1-3)[Gal(b1-4)]GlcNAc(b1-3)Gal(b1-4)Glc
Outline: (§1)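 Negative Z-scores can be read as non-binding. The Z-score is calculated within each array and then averaged across arrays of one protein sequence at different concentrations or buffers and across linkers. Arrays, 3228 in all, were curated from the Consortium for Functional Glycomics database and kept only where the protein sequence was available.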

[2] = target: Gal(b1-3)GalNAc(b1-4)[Neu5Ac(a2-3)]Gal(b1-4)Glc
Outline: as §1

[3] = target: Gal(b1-3)GalNAc(b1-4)[Neu5Gc(a2-3)]Gal(b1-4)Glc
Outline: as §1

[4] = target: Gal(b1-3)GlcNAc(b1-3)Gal(b1-4)Glc
Outline: as §1

[5] = target: Gal(b1-3)GlcNAc(b1-3)[Gal(b1-4)GlcNAc(b1-6)]Gal(b1-4)Glc
Outline: as §1

[6] = target: Gal(b1-3)[Neu5Ac(a2-6)]GlcNAc(b1-3)Gal(b1-4)Glc
Outline: as §1

Gal(b1-4)GlcNAc = target: Gal(b1-4)GlcNAc
Outline: as §1

[7] = target: Gal(b1-4)GlcNAc(b1-2)Man(a1-3)[Gal(b1-4)GlcNAc(b1-2)Man(a1-6)]Man(b1-4)GlcNAc(b1-4)GlcNAc
Outline: as §1

[8] = target: Gal(b1-4)GlcNAc(b1-3)Gal(b1-4)Glc
Outline: as §1

Neu(a2-3)Gal(b1-4)Glc = target: Neu(a2-3)Gal(b1-4)Glc
Outline: as §1

[9] = target: Neu(a2-3)Gal(b1-4)GlcNAc(b1-3)Gal(b1-4)[Fuc(a1-3)]GlcNAc(b1-3)Gal(b1-4)Glc
Outline: as §1

[10] = target: Neu(a2-3)Gal(b1-4)GlcNAc6S(b1-3)Gal(b1-4)Glc
Outline: as §1

[11] = target: Neu(a2-3)Gal(b1-4)[Fuc(a1-3)]GlcNAc(b1-3)Gal(b1-4)Glc
Outline: as §1

[12] = target: Neu(a2-3)Gal(b1-4)[Fuc(a1-3)]GlcNAc6S(b1-3)Gal(b1-4)Glc
Outline: as §1

[13] = target: Neu(a2-3)Gal6S(b1-4)[Fuc(a1-3)]GlcN(b1-3)Gal(b1-4)Glc
Outline: as §1

Neu(a2-6)Gal(b1-4)Glc = target: Neu(a2-6)Gal(b1-4)Glc
Outline: as §1

[14] = target: Neu4Ac5Ac(a2-3)Gal(b1-4)Glc
Outline: as §1

Neu5Ac(a2-3)Gal = target: Neu5Ac(a2-3)Gal
Outline: as §1

[15] = target: Neu5Ac(a2-3)Gal(b1-3)GalNAc(b1-4)Gal(b1-4)Glc
Outline: as §1

[16] = target: Neu5Ac(a2-3)Gal(b1-3)GalNAc(b1-4)[Neu5Ac(a2-3)]Gal(b1-4)Glc
Outline: as §1

[17] = target: Neu5Ac(a2-3)Gal(b1-3)GalNAc(b1-4)[Neu5Ac(a2-8)Neu5Ac(a2-3)]Gal(b1-4)Glc
Outline: as §1

[18] = target: Neu5Ac(a2-3)Gal(b1-3)GlcNAc
Outline: as §1

[19] = target: Neu5Ac(a2-3)Gal(b1-3)GlcNAc(b1-3)Gal(b1-4)Glc
Outline: as §1

[20] = target: Neu5Ac(a2-3)Gal(b1-3)GlcNAc(b1-3)[Fuc(a1-3)[Gal(b1-4)]GlcNAc(b1-6)]Gal(b1-4)Glc
Outline: as §1

[21] = target: Neu5Ac(a2-3)Gal(b1-3)[Fuc(a1-4)]GlcNAc
Outline: as §1

[22] = target: Neu5Ac(a2-3)Gal(b1-3)[Fuc(a1-4)]GlcNAc(b1-3)Gal(b1-4)Glc
Outline: as §1

[23] = target: Neu5Ac(a2-3)Gal(b1-3)[Neu5Ac(a2-6)]GalNAc
Outline: as §1

[24] = target: Neu5Ac(a2-3)Gal(b1-3)[Neu5Ac(a2-6)]GlcNAc(b1-3)Gal(b1-4)Glc
Outline: as §1

Neu5Ac(a2-3)Gal(b1-4)Glc = target: Neu5Ac(a2-3)Gal(b1-4)Glc
Outline: as §1

[25] = target: Neu5Ac(a2-3)Gal(b1-4)GlcNAc
Outline: as §1

B1: MIC13 (Toxoplasma gondii), A0A125YWL1 (protein)
chain: IQLRQHRNGLGVEQSFVSEETDIVGGRISSLQAELDSYCHNRYKQLCDGGNKKFCDKTGVARYGTGIQSQQTAEWRCYFAEVLKPSGRKVQCVDDCGNYFPCLGVVDPNDTFHATAHNQILNFIKDGVEKHCSPFQMAGNNYCQGVLADTVARKDTGTASQKAKAWRCYKKDSLTYEARSICVDNCGGEIECPGGRSETSGELLSQHYTREKELQKVIESQSAPCHDACVATPINPPICADTESLLQSTKRSRAQRFIDDACQKLFNCHCKKDKKFCTTVVARKDRGRAGSQNDAEWRCYSLEELDFQKTNPSCIDECGNELPCQGAVPEESTHHITWTKLPSKIDEATQKFCTERQRAANDYCASEFADSLARYGPGAGDQTSQFRCIKKAAMRADAEGQCADSCKGTETCGGGRSRLDGPLSVDDVLNAHEGISEAMKSASTEC
glycan array binding signal (z-score) [1]: -0.287
glycan array binding signal (z-score) [2]: -0.287
glycan array binding signal (z-score) [3]: -0.151
glycan array binding signal (z-score) [4]: -0.287
glycan array binding signal (z-score) [5]: -0.287
glycan array binding signal (z-score) [6]: -0.287
glycan array binding signal (z-score) (Gal(b1-4)GlcNAc): -0.287
glycan array binding signal (z-score) [7]: -0.287
glycan array binding signal (z-score) [8]: -0.287
glycan array binding signal (z-score) (Neu(a2-3)Gal(b1-4)Glc): -0.234
glycan array binding signal (z-score) [9]: -0.273
glycan array binding signal (z-score) [10]: -0.287
glycan array binding signal (z-score) [11]: -0.287
glycan array binding signal (z-score) [12]: -0.287
glycan array binding signal (z-score) [13]: -0.287
glycan array binding signal (z-score) (Neu(a2-6)Gal(b1-4)Glc): -0.287
glycan array binding signal (z-score) [14]: 0.24
glycan array binding signal (z-score) (Neu5Ac(a2-3)Gal): -0.287
glycan array binding signal (z-score) [15]: -0.287
glycan array binding signal (z-score) [16]: 0.447
glycan array binding signal (z-score) [17]: 0.21
glycan array binding signal (z-score) [18]: 0.678
glycan array binding signal (z-score) [19]: -0.258
glycan array binding signal (z-score) [20]: -0.243
glycan array binding signal (z-score) [21]: 0.984
glycan array binding signal (z-score) [22]: -0.287
glycan array binding signal (z-score) [23]: 0.23
glycan array binding signal (z-score) [24]: -0.022
glycan array binding signal (z-score) (Neu5Ac(a2-3)Gal(b1-4)Glc): -0.183
glycan array binding signal (z-score) [25]: 0.782
